# Results as given in PubChem BioAssay AID360 (National Center for Advancing Translational Sciences (NCATS), 2006).
# Among all 48,000 compounds or so, about 550 (1.1%) were called active. Inconclusive results (about 4%) are left out. Cut-off read from the data, not from the text of the source: active = potency below about 15 µM; inconclusive = mostly about 16 µM to 33 µM; inactive = weaker than that. This is one part of the list.
# Molecular target: Lysosomal acid glucosylceramidase (Homo sapiens) (UniProt P04062)
# UniProt P04062, sequence (P04062 whole entry, looked up): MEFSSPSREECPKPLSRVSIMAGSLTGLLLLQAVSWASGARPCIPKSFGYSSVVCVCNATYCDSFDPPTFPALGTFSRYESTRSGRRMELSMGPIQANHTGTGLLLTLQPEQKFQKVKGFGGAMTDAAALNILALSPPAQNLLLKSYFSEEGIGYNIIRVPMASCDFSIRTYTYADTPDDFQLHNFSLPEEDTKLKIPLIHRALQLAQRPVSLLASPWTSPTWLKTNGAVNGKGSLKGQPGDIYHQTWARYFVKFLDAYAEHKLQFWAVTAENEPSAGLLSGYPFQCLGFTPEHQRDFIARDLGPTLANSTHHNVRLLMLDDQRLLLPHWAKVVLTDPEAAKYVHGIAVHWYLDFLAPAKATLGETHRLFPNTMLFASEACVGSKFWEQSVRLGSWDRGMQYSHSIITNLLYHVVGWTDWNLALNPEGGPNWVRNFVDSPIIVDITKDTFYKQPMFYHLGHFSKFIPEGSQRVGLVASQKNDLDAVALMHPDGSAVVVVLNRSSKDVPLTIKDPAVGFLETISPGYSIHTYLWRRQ
# Experiment: Glucocerebrosidase;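 note: the screen sought inhibitors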
# Conditions: purified enzyme, resorufin glucoside fluorescence (screen aimed at inhibitors), 20 min
# Outline: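 Wild-type enzyme at 0.2 nM final in 50mM citric acid/KH2PO4, 10mM sodium taurocholate, 0.01% tween-20, pH 5.9, with resorufin beta-D-glucopyranoside at 30 uM final. Compounds titrated, 20 min at RT, red fluorescence read; AC50 from titration.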
# Potency is the fitted concentration of half-maximal effect.
row,Structure (SMILES),Potency
1,Cc1ccccc1N1C(=O)CC(=O)NC1=O,inactive: > 76.9 µM
2,O=C(c1cc(-c2cccnc2)nc2ccccc12)N1CCC2(CC1)OCCO2,inactive: > 76.9 µM
3,CC1=CC(=O)C2=C(C)CC(O)C3C(C)C(=O)OC3C12 (stereo not drawn),inactive: > 76.9 µM
4,COc1ccc2c(c1)CC1(CN2C)C(=O)NC(=O)N(CCc2ccccc2)C1=O (stereo not drawn),inactive: > 76.9 µM
5,OCCN1C2CCC1CC(O)(c1ccc(F)cc1)C2 (stereo not drawn),inactive: > 76.9 µM
6,CCOC(=O)c1c(-c2ccc(OC)cc2)oc2ccc(OC(=O)N(C)C)cc12,inactive: > 76.9 µM
7,O=C1c2ccccc2C2(c3ccc(Cl)cc3)NCCN12 (stereo not drawn),inactive: > 76.9 µM
8,CC1CN(O)C2CCc3nonc3C12O (stereo not drawn),inactive: > 76.9 µM
9,Cc1ccc(Cn2nnnc2CN2CCC(n3nnc4cc(C(F)(F)F)ccc43)CC2)cc1,inactive: > 76.9 µM
10,CCCCn1c(O)c(C(C)=NC(C)c2ccccc2)c(=O)[nH]c1=O (stereo not drawn),inactive: > 76.9 µM
11,Cn1cc(C(=O)N2CCC3(CC2)OCCO3)c2c3ccccc3n(C)c2c1=O,inactive: > 76.9 µM
12,O=C(Cc1ccccc1)OC(COCc1ccccc1)CN1CCOCC1 (stereo not drawn),inactive: > 76.9 µM
13,N=Cc1c(O)n(-c2cccc(Cl)c2)c(=O)[nH]c1=O,inactive: > 76.9 µM
14,Cc1cc(N)n(C2CCN(C)CC2)n1,inactive: > 76.9 µM
15,Cc1ccc(Cl)cc1N1CCN(CCN)CC1,inactive
16,CCC(C)N1C(=O)NC(=O)C2(Cc3cc(C)ccc3N(C)C2)C1=O (stereo not drawn),inactive: > 76.9 µM
17,C=CCN1C(=O)NC(=O)C(Cc2ccc(OC)c(OC)c2)C1=O (stereo not drawn),inactive: > 76.9 µM
18,Cc1ccc2c(c1)C1CN(C)CCC1N2C(=O)c1ccco1 (stereo not drawn),inactive: > 76.9 µM
19,CCC(C)NC(=O)c1c(N)n(Cc2ccc3c(c2)OCO3)c2nc3ccccc3nc12 (stereo not drawn),active: 15.1 µM
20,O=C(Cc1cccs1)N1CCC2(CC1)OCCO2,inactive: > 76.9 µM

row,Structure (SMILES),Potency
1,O=C(c1ccc2nc3ccc(Cl)cc3c(=O)n2c1)N1CCC2(CC1)OCCO2,inactive: > 76.9 µM
2,O=C(c1ccc2c(c1)ncn2C1CCCCC1)N1CCC2(CC1)OCCO2,inactive: > 76.9 µM
3,Cn1c(O)c(C=NC2C(=O)C3(C)CCC2C3(C)C)c(=O)n(C)c1=O (stereo not drawn),inactive: > 76.9 µM
4,COc1ccccc1-n1c(O)c(C=Nc2c(C)n(C)n(-c3ccccc3)c2=O)c(=O)[nH]c1=O,inactive: > 76.9 µM
5,c1ccc2sc(C3CCCNC3)nc2c1 (stereo not drawn),inactive: > 76.9 µM
6,CC1(C)CC(=O)C(C=NCCN2CCN(C(=O)Cc3ccc(Cl)cc3)CC2)=C(O)C1,inactive: > 76.9 µM
7,O=c1[nH]c(=O)n(CCc2ccc(F)cc2)c(O)c1C=NCCCN1CCOCC1,inactive: > 76.9 µM
8,CCC(=O)Nc1cc(C(=O)N2CCC3(CC2)OCCO3)ccc1S(=O)(=O)c1ccc(C)cc1,inactive: > 76.9 µM
9,Cc1ccc2nc(N3CCN(C)CC3)[nH]c2c1,inactive: > 76.9 µM
10,c1cc2n(c1)-c1c(ccc3c1OCO3)CNC2c1ccc2c(c1)OCO2 (stereo not drawn),inactive: > 76.9 µM
11,O=c1[nH]c(N2CCN(Cc3ccc4c(c3)OCO4)CC2)nc2c1CCC2,inactive: > 76.9 µM
12,Fc1cccc(F)c1CN1CCN(Cc2c(F)cccc2F)CC1,inactive: > 76.9 µM
13,CCOC(=O)c1cn2nc(OP(=S)(OCC)OCC)cc2nc1C,inactive: > 76.9 µM
14,Cn1c(=O)c2nncnc2n(C)c1=O,inactive: > 76.9 µM
15,COc1ccc(CC2C(=O)N(C)C(=O)N(C)C2=O)c(OC)c1,inactive: > 76.9 µM
16,OCCN(CC#CC(O)(c1ccccc1)C1CCCC1)CCO (stereo not drawn),inactive: > 76.9 µM
17,Cc1ccc(C2(O)CC(C)N(C)CC2C)cc1 (stereo not drawn),inactive: > 76.9 µM
18,CCOC(=O)c1c(C)n(Cc2ccccc2)c2ccc(OCC(O)CN3C(=O)CNC3=O)cc12 (stereo not drawn),inactive: > 76.9 µM
19,CC(=NCC1CCCO1)c1c(O)n(-c2ccccc2)c(=O)[nH]c1=O (stereo not drawn),inactive: > 76.9 µM
20,CCOC(=O)N(c1ccccc1)P1(=S)OCC(C)O1 (stereo not drawn),inactive: > 76.9 µM

row,Structure (SMILES),Potency
1,CCC1=C(C)C(N2CCOCC2)=NP(N2CCOCC2)(N2CCOCC2)=N1,inactive: > 76.9 µM
2,CC(NC(=O)Oc1ccccc1)C(c1cccs1)N1CCOCC1 (stereo not drawn),inactive: > 76.9 µM
3,CN(C)P(=O)(C(Cl)=C(N1CCCCC1)N1CCCCC1)N(C)C,inactive: > 76.9 µM
4,CCn1c(O)c(C=NCc2cccs2)c(=O)[nH]c1=O,inactive: > 76.9 µM
5,O=c1[nH]c(=O)n(-c2cccc(Cl)c2)c(O)c1C=NCCCN1CCOCC1,inactive: > 76.9 µM
6,CCOC(=O)c1ccc(NC(=O)c2c(O)[nH]c(=O)[nH]c2=O)cc1,inactive: > 76.9 µM
7,CN1C2C=C(N(C(=O)c3ccc(Cl)cc3)c3ccccc3)CC1CC2 (stereo not drawn),inactive: > 76.9 µM
8,COc1ccc(CC2c3cc(OC)c(OC)cc3CCN2C)cc1OC (stereo not drawn),inactive: > 76.9 µM
9,COCc1cc(C2SCC(=O)Nc3c2c(=O)[nH]n3C(C)C)ccc1OC (stereo not drawn),inactive: > 76.9 µM
10,CCOC(=O)c1cccc([P+](=O)O)c1,inactive: > 76.9 µM
11,C=CCn1c(O)c(C(C)=Nc2ccc(NC(C)=O)cc2)c(=O)[nH]c1=O,inactive: > 76.9 µM
12,CCC(=NCC1CCCO1)c1c(O)n(Cc2ccccc2)c(=O)[nH]c1=O (stereo not drawn),inactive: > 76.9 µM
13,CC(=NCC1CCCO1)c1c(O)n(-c2ccc(Cl)cc2)c(=O)[nH]c1=O (stereo not drawn),inactive: > 76.9 µM
14,COc1ccc(CCn2c(O)c(C=NC3CC3)c(=O)[nH]c2=O)cc1OC,inactive: > 76.9 µM
15,CC(=O)NC1CC2CCC(C1)N2 (stereo not drawn),inactive: > 76.9 µM
16,Cn1ccnc1P(=S)(c1nccn1C)N1CCOCC1,inactive: > 76.9 µM
17,Cc1ccc(-c2nc(CS(=O)CC(=O)N3CCC4(CC3)OCCO4)c(C)o2)cc1 (stereo not drawn),inactive: > 76.9 µM
18,CCOC(=O)C1=C(N)Oc2c(c(=O)oc3ccccc23)C12C(=O)N(C)c1ccccc12 (stereo not drawn),inactive: > 76.9 µM
